The values below come from patent publication US20050130892A1 (Xencor, published 2005).

The target of the assay is T1, untagged BAFF(wt), soluble TNF homology domain of BAFF (THD, residues 134-285) (human, UniProt Q9Y275 part only).
T1 construct: range 134-285
The assay can be described thus: monomer exchange reaction, native gels and Western blot, 24, 72 and 168 hrs. For orientation: A western blot detects proteins with antibodies after separation by electrophoresis.

B1: FlagBAFF(F220S) (ligand)
chain: not shown
notes: range […]; Numbering on the full-length precursor; also called Flag(F220S); Flag-F220S-BAFF; not shown: N-terminal Flag-tag followed by a Factor Xa protease site
For B1, the binding result was “binds”.
